{
  "source": "ChEMBL document CHEMBL4888484",
  "about": "“Replenishing the malaria drug discovery pipeline: Screening and hit evaluation of the MMV Hit Generation Library 1 (HGL1) against asexual blood stage Plasmodium falciparum ,using a nano luciferase reporter read-out” (2022)",
  "note": "In all, about 150,000 compounds went through this assay and about 540 (0.36%) showed an effect of 50% or more. The list shows a part of the results.",
  "data": [
    {"tested_on": "Plasmodium falciparum", "assay": "Primary screen in NF54 nanoGlo assay, in single point, at 2uM, 72h; a lower Z score goes with more inhibition", "format": "functional, Erythrocyte", "conditions": "timepoint 72 hour", "units": {"% Inhibition": "%"}, "values": [
      {"smiles": "CCc1noc(CCNC(=O)[C@@H]2CCCN2C(C)=O)n1", "% Inhibition": -5, "Z score": 0.7},
      {"smiles": "O=C(N[C@H]1CC[C@H](NC(=O)[C@@H]2CCCN2S(=O)(=O)c2cccc(C(F)(F)F)c2)CC1)c1ccccc1", "% Inhibition": -12, "Z score": 1.16},
      {"smiles": "O=C1CCc2cc(C(=O)N3CCc4ncccc4C3)ccc2N1", "% Inhibition": -3, "Z score": 0.42},
      {"smiles": "CC(=O)c1cn([C@@H](C)C(=O)NCc2cc(O)ncn2)c2ccccc12", "% Inhibition": -9, "Z score": 1.67},
      {"smiles": "COCCCNS(=O)(=O)CC1CCCCC1", "% Inhibition": 7, "Z score": -1.37},
      {"smiles": "Cn1ncnc1NC(=O)CCC1CCCC1", "% Inhibition": -2, "Z score": 0.45},
      {"smiles": "COC(=O)CC(Cc1ccccc1)NS(=O)(=O)N1CCCC(C)C1", "note": "(stereo unspecified)", "% Inhibition": 6, "Z score": -0.98},
      {"smiles": "Cn1cnn(CCc2cc(Cl)c3c(c2)OCCCO3)c1=O", "% Inhibition": -8, "Z score": 0.73},
      {"smiles": "O=C(Nc1ccc2c(c1)OCO2)c1ccccn1", "% Inhibition": 0, "Z score": 0.07},
      {"smiles": "CC(=O)N[C@@H](Cc1c[nH]c2ccccc12)C(=O)N1CCN(c2nccs2)CC1", "% Inhibition": 2, "Z score": -0.33},
      {"smiles": "CCc1ccnc(C(=O)N[C@H]2CCN(c3cc(=O)n(C)c(=O)[nH]3)C2)c1", "% Inhibition": -14, "Z score": 1.59},
      {"smiles": "Cc1ccc(C(=O)N2CCC3(CCC(=O)N([C@H]4CC[C@H](O)CC4)C3)CC2)cc1", "% Inhibition": 2, "Z score": -0.31},
      {"smiles": "O=C(Cn1nc(N2CCOCC2)ccc1=O)N1CCN(c2cccc(Cl)c2)CC1", "% Inhibition": -8, "Z score": 1.37},
      {"smiles": "CCN1CCC2(CCN(C(=O)CC3(c4ccccc4)CC(=O)N(Cc4cccs4)C3=O)C2)C1", "note": "(stereo unspecified)", "% Inhibition": -1, "Z score": 0.11},
      {"smiles": "C[C@H]1CCCN(S(=O)(=O)NCC(=O)Nc2ccccn2)C1", "% Inhibition": 34, "Z score": -4.88},
      {"smiles": "Cc1nonc1C(=O)N1CCCN(CC2CC2)[C@H](C(C)C)C1", "% Inhibition": -6, "Z score": 0.6},
      {"smiles": "COc1ccc(Nc2nnc(/C=C/c3ccc(Cl)cc3)c(=O)n2N)cc1", "% Inhibition": -32, "Z score": 3.73},
      {"smiles": "Cc1ccc(S(=O)(=O)N[C@H](CO)CC(F)(F)F)o1", "% Inhibition": -15, "Z score": 1.67},
      {"smiles": "CCN1C[C@H](CN(C)CC(=O)Nc2sc3c(c2C#N)CCC3)Oc2ccccc21", "% Inhibition": 16, "Z score": -1.88},
      {"smiles": "O=C(Cn1cc(F)c(=O)n(CC(=O)Nc2ccccc2Cl)c1=O)Nc1ccccc1Cl", "% Inhibition": -1, "Z score": 0.12},
      {"smiles": "Cc1ccc(-c2cccc(C(=O)NCCN3CCC[C@H](C(N)=O)C3)c2)o1", "% Inhibition": -1, "Z score": 0.12},
      {"smiles": "CC(C)n1nccc1NC(=O)CN1CCCC1", "% Inhibition": -10, "Z score": 1.13},
      {"smiles": "Cc1cccc(N2CCN(C(=O)c3cnn4c5c(cnc34)C(=O)CC(C)(C)C5)CC2)c1C", "% Inhibition": -12, "Z score": 1.67}
    ]}
  ]
}
